Results published in the supplement of paper PMC3334620.
Whole data set: some 33,000 sequences, median “E-score (-0.5 to 0.5)” near -0.021, cut for the highest 2% near 0.32. The list shows a part of the results.

Molecular target: T1, Zap1 (UniProt P47043)
T1 sequence: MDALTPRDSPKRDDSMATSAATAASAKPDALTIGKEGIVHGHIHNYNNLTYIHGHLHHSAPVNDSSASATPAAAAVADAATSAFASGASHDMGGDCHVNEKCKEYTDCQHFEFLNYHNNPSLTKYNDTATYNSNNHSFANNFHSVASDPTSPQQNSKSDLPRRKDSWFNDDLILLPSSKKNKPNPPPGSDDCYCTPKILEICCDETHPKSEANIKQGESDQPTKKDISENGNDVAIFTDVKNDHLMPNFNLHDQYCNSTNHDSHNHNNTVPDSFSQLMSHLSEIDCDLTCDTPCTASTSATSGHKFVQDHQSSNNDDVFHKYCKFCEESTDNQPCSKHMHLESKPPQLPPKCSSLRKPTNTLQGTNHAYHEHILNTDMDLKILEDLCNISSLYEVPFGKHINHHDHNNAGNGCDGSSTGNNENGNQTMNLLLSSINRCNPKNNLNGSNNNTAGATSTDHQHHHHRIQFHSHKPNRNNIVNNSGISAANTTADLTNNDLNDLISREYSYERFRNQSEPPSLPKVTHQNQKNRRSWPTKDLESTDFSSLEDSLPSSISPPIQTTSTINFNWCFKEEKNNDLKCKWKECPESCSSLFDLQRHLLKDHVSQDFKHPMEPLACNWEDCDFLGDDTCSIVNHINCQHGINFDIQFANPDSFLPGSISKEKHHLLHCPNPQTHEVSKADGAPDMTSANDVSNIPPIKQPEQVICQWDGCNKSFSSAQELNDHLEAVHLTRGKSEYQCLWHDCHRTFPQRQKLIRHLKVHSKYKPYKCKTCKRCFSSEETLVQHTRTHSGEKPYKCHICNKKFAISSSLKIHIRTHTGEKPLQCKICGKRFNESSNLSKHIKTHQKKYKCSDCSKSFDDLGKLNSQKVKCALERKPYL
Assay: PBM E-score (8-mer binding enrichment) (E-score (-0.5 to 0.5)); higher = stronger / more preferred TF binding; most listed sequences are background and not binding sites
Conditions: protein concentration: 200 nM; construct: GST-full length
Description: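 Universal 'all 10-mer' protein binding microarrays (Agilent AMADID 015681) probed with GST-tagged S. cerevisiae TFs (full-length or DBD) made by in vitro transcription/translation (PURExpress), about 100-200 nM. Bound TF was detected with fluorescent anti-GST. Each ungapped 8-mer (which stands for itself and its reverse complement) is scored by the PBM enrichment score (E-score), a modified Wilcoxon-Mann-Whitney statistic from -0.5 to +0.5, computed with the Universal PBM Analysis Suite. Scale: above 0.35 generally sequence-specific binding.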

| Sequence | PBM E-score |
| --- | --- |
| TGATCTAA | 0.0921 |
| AGCCGATA | -0.237 |
| GGTCTGAA | 0.135 |
| CTTGACTC | -0.205 |
| ACAGACGG | -0.221 |
| AAATGGCC | 0.0268 |
| GCTGTGGA | -0.0748 |
| ATGAGGCC | 0.171 |
| ACTTACGG | 0.0636 |
| TGCGTTAA | 0.127 |
| CAAAGGGA | -0.0511 |
| ACGGCGGA | -0.13 |
| AGCACGTC | -0.298 |
| AGTACCAA | 0.254 |
| CCGGGCCC | -0.0329 |
| CACGGTTA | 0.372 |
| CCATAGAA | 0.0531 |
| CAAATTCC | -0.00509 |
| GGAATCGA | -0.255 |
| AACATCAC | 0.0232 |
| GTATCACA | 0.0613 |
| TTACAGAA | 0.133 |
| ATACACAC | 0.177 |
| GAACAAAC | 0.128 |
| AGTCGTGG | -0.101 |

| Sequence | PBM E-score |
| --- | --- |
| ACCTTAGG | 0.216 |
| GGCGTTAC | 0.0794 |
| ACGTAGGC | -0.0949 |
| AGATACCG | 0.0651 |
| CAATCGTC | -0.158 |
| CTTACATA | 0.0764 |
| TACTTTCA | 0.059 |
| CCGTCACA | -0.0724 |
| ACGAAGGG | 0.0647 |
| AAAGCTCT | -0.157 |
| AACCTATC | 0.203 |
| CTTGGCTC | -0.192 |
| AGCGGAGG | -0.196 |
| AGCTTGAC | -0.0289 |
| CCCCCTTA | -0.365 |
| GAATCACA | -0.17 |
| AATCTACA | 0.167 |
| AGTGACAC | -0.119 |
| CCCTACTC | 0.0737 |
| CAGACGAG | -0.164 |
| CGCTTAAC | 0.131 |
| CCGTATCG | -0.15 |
| CCGCGCAG | -0.043 |
| ATTCGCGC | -0.0824 |
| CCGTCGTC | -0.228 |

| Sequence | PBM E-score |
| --- | --- |
| GGGCCACA | 0.0248 |
| GACCGATC | -0.154 |
| ATTGAATG | 0.113 |
| GTGTTGAA | -0.0764 |
| AAGGTCCA | 0.00444 |
| AGAAGCCC | -0.122 |
| GGGCCCCA | 0.0485 |
| CATAGGTC | 0.106 |
| CAAGTACG | -0.218 |
| ATCCTGCA | -0.0915 |
| AGTCCTCA | -0.078 |
| CGCAGACG | -0.129 |
| CCCTGCGG | 0.292 |
| AACACTCT | -0.0922 |
| ACAATGTC | 0.00751 |
| AAAAGTGG | 0.242 |
| CCAAATGC | 0.0316 |
| AGTACTAT | 0.124 |
| ACTATGCC | -0.0338 |
| ATTACTCA | 0.0908 |
| TCGGGTCA | 0.233 |
| CGCTATAA | 0.00813 |
| ATCCGCCG | 0.0104 |
| AGTTGTTA | 0.161 |
| AAGCGTGT | -0.184 |

| Sequence | PBM E-score |
| --- | --- |
| AGCCAGTG | -0.208 |
| AGGAGCAT | -0.326 |
| AGTTAACC | 0.289 |
| AATACATT | 0.0382 |
| CGAGACGC | -0.189 |
| CGCATAGA | -0.00888 |
| TCTTAACA | -0.0657 |
| AAACGCTT | -0.162 |
| CACTTGAA | 0.0498 |
| ATAGAGAA | -0.0311 |
| TATGGCGA | -0.125 |
| CCCGATGA | 0.0306 |
| CAGTCAAA | -0.0966 |
| ACAGGCAC | -0.297 |
| CGTGACTA | 0.0834 |
| AATACCGA | 0.014 |
| ACTCTGAA | -0.0473 |
| CTAATCGA | 0.0645 |
| AGATAAGA | 0.125 |
| AGCGCAGC | -0.41 |
| CTTACAGA | 0.0139 |
| CAATGCAG | -0.0775 |
| AAATACAT | -0.0948 |
| ACAACTGC | -0.0344 |
| AGGGACCT | 0.281 |

| Sequence | PBM E-score |
| --- | --- |
| ATGATCTG | 0.0147 |
| CGACAAGC | -0.158 |
| CAACATCC | -0.218 |
| CGCTGTGC | -0.0239 |
| CCGGGAGC | -0.233 |
| CCAAAGTA | 0.027 |
| AGGCTGAG | -0.0733 |
| ACATCAAT | 0.106 |
| CAAACCAC | 0.0159 |
| GAAGTTAA | -0.0394 |
| GACCAAGC | 0.039 |
| AATAACAC | 0.107 |
| CCACCAAG | -0.123 |
| ACATCAAC | 0.105 |
| AAACCCAG | 0.228 |
| GGACAAAC | 0.137 |
| AACATCCA | 0.0169 |
| ATCAATGC | -0.232 |
| GAAAAGGA | -0.0181 |
| ATAGCCAG | -0.0475 |
| CCTGATCG | -0.172 |
| GAGCTAAA | -0.159 |
| TCCTGCCA | -0.26 |
| ATTTGTGA | 0.123 |
| AAATTGAT | 0.102 |

| Sequence | PBM E-score |
| --- | --- |
| ATGGAAAA | 0.146 |
| ACCTCCAA | 0.157 |
| ACGGGTCA | 0.223 |
| AGCCTGCG | -0.282 |
| GAGTGGTA | 0.11 |
| GTCCCCAC | 0.0691 |
| ATGTCAAT | -0.166 |
| AATCGAAC | 0.0379 |
| ATTTGGGA | 0.0783 |
| ACGTGCCT | -0.341 |
| ATCTTCGG | 0.00595 |
| GTTACAAC | 0.291 |
| AAACTAAT | 0.236 |
| ATCCCATC | -0.247 |
| CTTGGGTA | 0.196 |
| ATCGGCGG | -0.103 |
| GACTAGAA | -0.115 |
| CGGACCCC | -0.026 |
| ACATCAGC | -0.133 |
| TATAGGAA | 0.088 |
| GCCACTCA | -0.0824 |
| GACTCACC | -0.172 |
| CTTCGAAC | 0.164 |
| GGACTGCA | -0.171 |
| GTATCAGA | -0.0545 |

| Sequence | PBM E-score |
| --- | --- |
| CAGTTGTC | -0.00938 |
| AGGATGGA | -0.0464 |
| AGTACCCC | 0.296 |
| ATCGACAA | 0.147 |
| ATTGCAAT | -0.00114 |
| ACGTTCAA | -0.181 |
| GGATAACA | -0.0812 |
| AGCATGTC | -0.0983 |
| ATATTAGG | 0.174 |
| GATTCGGC | -0.192 |
| ATCAAAGA | -0.0279 |
| GCCTATCC | -0.194 |
| CCCTAGAG | 0.281 |
| GTAGCTCA | -0.143 |
| TAACGACA | -0.00629 |
| CAGAGAGA | -0.21 |
| GAAGGAGA | -0.122 |
| ATAACTGG | -0.0359 |
| AAATCCAA | 0.108 |
| CAAACCTG | 0.0641 |
| GGAGAACA | -0.0701 |
| CTAGCAAG | -0.192 |
